# Results from the supplement of paper PMC10037445.
# Values joined by “and” are separate entries in the source; they are usually repeats but may differ in a detail not shown here. Identical values can stand only once. Over roughly 2,900 compounds, “IRF Lucia reporter activity, fold change vs agonist alone” has its median near 0.9; the highest 2% begin near 2.8. The list shows a part of the results.
# Assays:
# [1] = system: RAW-Dual; assay: IRF Lucia reporter activity, fold change vs agonist alone; higher = enhanced IRF activity; conditions: agonist: MPLA (TLR4) […]
# Procedure, shortened: (§1)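 RAW-Dual macrophages (50,000 cells/well in DMEM, 384-well plates) received 50 nL of library stock by pin tool, then a PRR agonist 1 h later, and were kept at 37 °C, 5% CO2. After 20 hours, supernatant was read for IRF by QuantiLuc luminescence and for NF-κB by QuantiBlue absorbance at 620 nm. Reporter activity is fold change over agonist-alone wells. Cytotoxic wells had IncuCyte confluency below 70% of agonist controls in both mask sets.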
# [2] = system: RAW-Dual; assay: IRF Lucia reporter activity, fold change vs agonist alone; cytotoxicity flag (confluency mask): cytotoxic (confluency <70% of control); higher = enhanced IRF activity
# Procedure, shortened: as §1
# [3] = system: RAW-Dual; assay: IRF Lucia reporter activity, fold change vs agonist alone; cytotoxicity flag (confluency mask): not cytotoxic; higher = enhanced IRF activity
# Procedure, shortened: as §1
# [4] = library stock concentration (final ~1000-fold dilution): 10 mM, cytotoxicity flag (confluency mask): cytotoxic (confluency <70% of control)
# [5] = agonist: 3'3'-cGAMP (STING) 10 ug/mL
# [6] = library stock concentration (final ~1000-fold dilution): 10 mM, cytotoxicity flag (confluency mask): not cytotoxic
smiles,measurement,setting,value
CC(C)CNc1ccnc(NCc2csc(-c3ccccc3)n2)n1.Cl,IRF Lucia reporter activity,[1]; [4],2.05
CC(C)CNc1ccnc(NCc2csc(-c3ccccc3)n2)n1.Cl (library stock concentration (final ~1000-fold dilution): 10 mM),IRF Lucia reporter activity,[2]; [5],0.669
same,IRF Lucia reporter activity,[2]; agonist: LPS (TLR4) 0.1 ug/mL,1.38
Cl.Clc1ccc(CCCOCCCN2CCCCC2)cc1,IRF Lucia reporter activity,[1]; [6],1.29
Cl.Clc1ccc(CCCOCCCN2CCCCC2)cc1 (library stock concentration (final ~1000-fold dilution): 10 mM),IRF Lucia reporter activity,[3]; [5],0.779
same,IRF Lucia reporter activity,[3]; agonist: LPS (TLR4) 0.1 ug/mL,1.2
COc1ccc(-c2cc(=O)c3c(O)cc(O)cc3o2)cc1O (library stock concentration (final ~1000-fold dilution): 10 mM),IRF Lucia reporter activity,[3]; [5],0.374
same,IRF Lucia reporter activity,[3]; agonist: LPS (TLR4) 0.1 ug/mL,0.116
COc1ccc(-c2cc(=O)c3c(O)cc(O)cc3o2)cc1O,IRF Lucia reporter activity,[1]; [6],0.235
Cc1cc2c(F)c(Oc3ncnn4cc(OCC(C)O)c(C)c34)ccc2[nH]1 (centres undefined),IRF Lucia reporter activity,[1]; [6],1.93
Cc1cc2c(F)c(Oc3ncnn4cc(OCC(C)O)c(C)c34)ccc2[nH]1 (centres undefined) (library stock concentration (final ~1000-fold dilution): 10 mM),IRF Lucia reporter activity,[3]; [5],1.01
same,IRF Lucia reporter activity,[3]; agonist: LPS (TLR4) 0.1 ug/mL,1.75
CC1(C)CC(=O)c2c(C(F)(F)F)nn(-c3ccc(C(N)=O)c(NC4CCC(OC(=O)CN)CC4)c3)c2C1 (centres undefined) (library stock concentration (final ~1000-fold dilution): 10 mM),IRF Lucia reporter activity,[3]; [5],0.971
same,IRF Lucia reporter activity,[3]; agonist: LPS (TLR4) 0.1 ug/mL,0.739
CC1(C)CC(=O)c2c(C(F)(F)F)nn(-c3ccc(C(N)=O)c(NC4CCC(OC(=O)CN)CC4)c3)c2C1 (centres undefined),IRF Lucia reporter activity,[1]; [6],1.06
CC(NC(=O)/C(C#N)=C/c1cccc(Br)n1)c1ccccc1 (centres undefined) (library stock concentration (final ~1000-fold dilution): 10 mM),IRF Lucia reporter activity,[2]; [5],0.0208
same,IRF Lucia reporter activity,[2]; agonist: LPS (TLR4) 0.1 ug/mL,0.0182
CC(NC(=O)/C(C#N)=C/c1cccc(Br)n1)c1ccccc1 (centres undefined),IRF Lucia reporter activity,[1]; [4],0.0244
CCN(CC)CCNC(=O)c1cc(S(C)(=O)=O)ccc1OC.Cl (library stock concentration (final ~1000-fold dilution): 10 mM),IRF Lucia reporter activity,[3]; [5],1.03
same,IRF Lucia reporter activity,[3]; agonist: LPS (TLR4) 0.1 ug/mL,0.987
Cc1c(OCC(F)(F)F)ccnc1CS(=O)c1nc2ccccc2[nH]1 (centres undefined) (library stock concentration (final ~1000-fold dilution): 10 mM),IRF Lucia reporter activity,[3]; [5],0.715
same,IRF Lucia reporter activity,[3]; agonist: LPS (TLR4) 0.1 ug/mL,0.834
Cc1c(OCC(F)(F)F)ccnc1CS(=O)c1nc2ccccc2[nH]1 (centres undefined),IRF Lucia reporter activity,[1]; [6],0.994
CC(C)(C)N.CCCC(NC(C)C(=O)N1C(C(=O)O)CC2CCCCC21)C(=O)OCC (centres undefined) (library stock concentration (final ~1000-fold dilution): 10 mM water),IRF Lucia reporter activity,[3]; [5],1.03
same,IRF Lucia reporter activity,[3]; agonist: LPS (TLR4) 0.1 ug/mL,0.833
CC(C)(C)N.CCCC(NC(C)C(=O)N1C(C(=O)O)CC2CCCCC21)C(=O)OCC (centres undefined),IRF Lucia reporter activity,"[1]; library stock concentration (final ~1000-fold dilution): 10 mM water, cytotoxicity flag (confluency mask): not cytotoxic",1.32
CN1CCc2cc3c(cc2C(=O)Cc2ccc4c(c2C1)OCO4)OCO3 (library stock concentration (final ~1000-fold dilution): 10 mM),IRF Lucia reporter activity,[3]; [5],1.04 and 0.775
same,IRF Lucia reporter activity,[3]; agonist: LPS (TLR4) 0.1 ug/mL,1.2 and 1.22
CN1CCc2cc3c(cc2C(=O)Cc2ccc4c(c2C1)OCO4)OCO3,IRF Lucia reporter activity,[1]; [6],1.11
C=CC(=O)Nc1cc(C)ccc1Nc1nc(Nc2cc(OC)ncc2C)ncc1C(F)(F)F (library stock concentration (final ~1000-fold dilution): 10 mM),IRF Lucia reporter activity,[2]; [5],0.056
same,IRF Lucia reporter activity,[2]; agonist: LPS (TLR4) 0.1 ug/mL,0.0167
Cl.N=C(N)NC(=O)c1nc(Cl)c(N)nc1N,IRF Lucia reporter activity,[1]; [6],0.879
Cl.N=C(N)NC(=O)c1nc(Cl)c(N)nc1N (library stock concentration (final ~1000-fold dilution): 10 mM),IRF Lucia reporter activity,[3]; [5],1.17
same,IRF Lucia reporter activity,[3]; agonist: LPS (TLR4) 0.1 ug/mL,0.9
O=C(NCCS(=O)(=O)c1ccc(C(F)(F)F)cn1)c1ccc(Cl)cc1 (library stock concentration (final ~1000-fold dilution): 10 mM),IRF Lucia reporter activity,[3]; [5],0.893
same,IRF Lucia reporter activity,[3]; agonist: LPS (TLR4) 0.1 ug/mL,1.14
CC(C)CC(=O)Nc1n[nH]c2c1CN(C(=O)C1CCN(C)CC1)C2(C)C,IRF Lucia reporter activity,[1]; [6],0.11
CC(C)CC(=O)Nc1n[nH]c2c1CN(C(=O)C1CCN(C)CC1)C2(C)C (library stock concentration (final ~1000-fold dilution): 10 mM),IRF Lucia reporter activity,[3]; [5],0.402
same,IRF Lucia reporter activity,[3]; agonist: LPS (TLR4) 0.1 ug/mL,0.269
CC(C)=CCC[C@](C)(O)[C@@H]1CC[C@]2(C)C3CCC4C(C)(C)C(O[C@@H]5O[C@H](CO)[C@@H](O)[C@H](O)[C@H]5O[C@@H]5O[C@H](CO)[C@@H](O)[C@H](CO)[C@H]5O)CC[C@]4(C)C3C[C@H](O)[C@H]12 (some centres undefined) (library stock concentration (final ~1000-fold dilution): 10 mM),IRF Lucia reporter activity,[3]; [5],0.835
same,IRF Lucia reporter activity,[3]; agonist: LPS (TLR4) 0.1 ug/mL,0.965
Cc1ccc(C(=O)N(CCCN)C(c2oc3cc(Cl)ccc3c(=O)c2Cc2ccccc2)C(C)C)cc1.Cl (centres undefined),IRF Lucia reporter activity,[1]; [6],1.11
Cc1ccc(C(=O)N(CCCN)C(c2oc3cc(Cl)ccc3c(=O)c2Cc2ccccc2)C(C)C)cc1.Cl (centres undefined) (library stock concentration (final ~1000-fold dilution): 10 mM),IRF Lucia reporter activity,[3]; [5],1.01
same,IRF Lucia reporter activity,[3]; agonist: LPS (TLR4) 0.1 ug/mL,0.0205
